# Measurements: publication PMC12820563
# Some of the results follow. The list includes weakly bound sequences.
# Target: T1, MBP-FoxP3dN (UniProt Q99JB6)
# T1 sequence: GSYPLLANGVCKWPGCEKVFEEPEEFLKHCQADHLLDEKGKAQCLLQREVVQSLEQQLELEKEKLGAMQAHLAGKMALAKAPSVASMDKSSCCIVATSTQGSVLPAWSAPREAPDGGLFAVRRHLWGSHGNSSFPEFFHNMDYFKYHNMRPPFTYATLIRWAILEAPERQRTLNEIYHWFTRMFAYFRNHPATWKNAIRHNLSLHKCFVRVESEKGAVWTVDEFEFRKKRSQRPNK
# Test: PD-seq (MBP pull-down with sequencing)
# Conditions: 20 mM Tris-HCl pH 7.5, 100 mM NaCl, 1.5 mM MgCl2, 0.4 uM protein, 0.1 uM dsDNA library, 30 min, room temperature, amylose pull-down; high values mean tight binding; double strand, one strand shown
row,Sequence,binding signal (RPM ratio (pull-down/input))
1,GATGATTGTTCTCCCAGCTGATGAATTGTGGGGCTCGAGTAAACAAATTTTCCTAATCTTTCTGTTCAAGCGCCATCTAC,0.656
2,GATGATTGTTCTCCCAGCTGATGAATTAAACGCATCGAGTAAACAAATTTTCCTAATCTTTCTGTTCAAGCGCCATCTAC,1.19
3,GATGATTGTTCTCCCAGCTGATGAATTTCTCCTGTCGAGTAAACAAATTTTCCTAATCTTTCTGTTCAAGCGCCATCTAC,0.185
4,GATGATTGTTCTCCCAGCTGATGAATTCACTGATTCGAGTAAACAAATTTTCCTAATCTTTCTGTTCAAGCGCCATCTAC,0.308
5,GATGATTGTTCTCCCAGCTGATGAATTCGGTCTTTCGAGTAAACAAATTTTCCTAATCTTTCTGTTCAAGCGCCATCTAC,0.441
6,GATGATTGTTCTCCCAGCTGATGAATTTACTATATCGAGTAAACAAATTTTCCTAATCTTTCTGTTCAAGCGCCATCTAC,0.679
7,GATGATTGTTCTCCCAGCTGATGAATTCATTGCCTCGAGTAAACAAATTTTCCTAATCTTTCTGTTCAAGCGCCATCTAC,1.17
8,GATGATTGTTCTCCCAGCTGATGAATTAGTCTCTTCGAGTAAACAAATTTTCCTAATCTTTCTGTTCAAGCGCCATCTAC,0.628
9,GATGATTGTTCTCCCAGCTGATGAATTCGCAACTTCGAGTAAACAAATTTTCCTAATCTTTCTGTTCAAGCGCCATCTAC,2.54
10,GATGATTGTTCTCCCAGCTGATGAATTATTAATTTCGAGTAAACAAATTTTCCTAATCTTTCTGTTCAAGCGCCATCTAC,0.431
11,GATGATTGTTCTCCCAGCTGATGAATTTCGGGCATCGAGTAAACAAATTTTCCTAATCTTTCTGTTCAAGCGCCATCTAC,0.662
12,GATGATTGTTCTCCCAGCTGATGAATTTACTCCTTCGAGTAAACAAATTTTCCTAATCTTTCTGTTCAAGCGCCATCTAC,0.503
13,GATGATTGTTCTCCCAGCTGATGAATTACTATTGTCGAGTAAACAAATTTTCCTAATCTTTCTGTTCAAGCGCCATCTAC,0.817
14,GATGATTGTTCTCCCAGCTGATGAATTAGATTAGTCGAGTAAACAAATTTTCCTAATCTTTCTGTTCAAGCGCCATCTAC,1.04
15,GATGATTGTTCTCCCAGCTGATGAATTTAGAATGTCGAGTAAACAAATTTTCCTAATCTTTCTGTTCAAGCGCCATCTAC,0.72
16,GATGATTGTTCTCCCAGCTGATGAATTAACCCAGTCGAGTAAACAAATTTTCCTAATCTTTCTGTTCAAGCGCCATCTAC,0.224
17,GATGATTGTTCTCCCAGCTGATGAATTCGCAAGTTCGAGTAAACAAATTTTCCTAATCTTTCTGTTCAAGCGCCATCTAC,0.458
18,GATGATTGTTCTCCCAGCTGATGAATTAGTGATTTCGAGTAAACAAATTTTCCTAATCTTTCTGTTCAAGCGCCATCTAC,2.55
19,GATGATTGTTCTCCCAGCTGATGAATTCGACTTATCGAGTAAACAAATTTTCCTAATCTTTCTGTTCAAGCGCCATCTAC,0.683
20,GATGATTGTTCTCCCAGCTGATGAATTGCATCGCTCGAGTAAACAAATTTTCCTAATCTTTCTGTTCAAGCGCCATCTAC,1.54
21,GATGATTGTTCTCCCAGCTGATGAATTCGGATGATCGAGTAAACAAATTTTCCTAATCTTTCTGTTCAAGCGCCATCTAC,0.41

row,Sequence,binding signal (RPM ratio (pull-down/input))
1,GATGATTGTTCTCCCAGCTGATGAATTACCGCGTTCGAGTAAACAAATTTTCCTAATCTTTCTGTTCAAGCGCCATCTAC,1.32
2,GATGATTGTTCTCCCAGCTGATGAATTTAGTGTGTCGAGTAAACAAATTTTCCTAATCTTTCTGTTCAAGCGCCATCTAC,3.43
3,GATGATTGTTCTCCCAGCTGATGAATTTGAGTTTTCGAGTAAACAAATTTTCCTAATCTTTCTGTTCAAGCGCCATCTAC,0.885
4,GATGATTGTTCTCCCAGCTGATGAATTCCCGTAGTCGAGTAAACAAATTTTCCTAATCTTTCTGTTCAAGCGCCATCTAC,0.253
5,GATGATTGTTCTCCCAGCTGATGAATTGACACAGTCGAGTAAACAAATTTTCCTAATCTTTCTGTTCAAGCGCCATCTAC,0.454
6,GATGATTGTTCTCCCAGCTGATGAATTGCCCTTTTCGAGTAAACAAATTTTCCTAATCTTTCTGTTCAAGCGCCATCTAC,0.484
7,GATGATTGTTCTCCCAGCTGATGAATTATTCCACTCGAGTAAACAAATTTTCCTAATCTTTCTGTTCAAGCGCCATCTAC,0.377
8,GATGATTGTTCTCCCAGCTGATGAATTAAGCGGCTCGAGTAAACAAATTTTCCTAATCTTTCTGTTCAAGCGCCATCTAC,0.629
9,GATGATTGTTCTCCCAGCTGATGAATTCACATGTTCGAGTAAACAAATTTTCCTAATCTTTCTGTTCAAGCGCCATCTAC,0.611
10,GATGATTGTTCTCCCAGCTGATGAATTTACAGCCTCGAGTAAACAAATTTTCCTAATCTTTCTGTTCAAGCGCCATCTAC,0.597
11,GATGATTGTTCTCCCAGCTGATGAATTGAGAGCATCGAGTAAACAAATTTTCCTAATCTTTCTGTTCAAGCGCCATCTAC,0.774
12,GATGATTGTTCTCCCAGCTGATGAATTGGGCCGCTCGAGTAAACAAATTTTCCTAATCTTTCTGTTCAAGCGCCATCTAC,1
13,GATGATTGTTCTCCCAGCTGATGAATTTTGCTTCTCGAGTAAACAAATTTTCCTAATCTTTCTGTTCAAGCGCCATCTAC,2.58
14,GATGATTGTTCTCCCAGCTGATGAATTCCAATTCTCGAGTAAACAAATTTTCCTAATCTTTCTGTTCAAGCGCCATCTAC,0.503
15,GATGATTGTTCTCCCAGCTGATGAATTTTGGGCGTCGAGTAAACAAATTTTCCTAATCTTTCTGTTCAAGCGCCATCTAC,0.551
16,GATGATTGTTCTCCCAGCTGATGAATTACGGAGGTCGAGTAAACAAATTTTCCTAATCTTTCTGTTCAAGCGCCATCTAC,0.267
17,GATGATTGTTCTCCCAGCTGATGAATTCGCGTTGTCGAGTAAACAAATTTTCCTAATCTTTCTGTTCAAGCGCCATCTAC,1.3
18,GATGATTGTTCTCCCAGCTGATGAATTTTCTGTGTCGAGTAAACAAATTTTCCTAATCTTTCTGTTCAAGCGCCATCTAC,0.415
19,GATGATTGTTCTCCCAGCTGATGAATTTTGAGGCTCGAGTAAACAAATTTTCCTAATCTTTCTGTTCAAGCGCCATCTAC,0.501
20,GATGATTGTTCTCCCAGCTGATGAATTGCGCTAGTCGAGTAAACAAATTTTCCTAATCTTTCTGTTCAAGCGCCATCTAC,1.83
21,GATGATTGTTCTCCCAGCTGATGAATTCTCCTGTTCGAGTAAACAAATTTTCCTAATCTTTCTGTTCAAGCGCCATCTAC,0.256

row,Sequence,binding signal (RPM ratio (pull-down/input))
1,GATGATTGTTCTCCCAGCTGATGAATTCAGCAGTTCGAGTAAACAAATTTTCCTAATCTTTCTGTTCAAGCGCCATCTAC,0.768
2,GATGATTGTTCTCCCAGCTGATGAATTCTTACACTCGAGTAAACAAATTTTCCTAATCTTTCTGTTCAAGCGCCATCTAC,0.336
3,GATGATTGTTCTCCCAGCTGATGAATTATTGATGTCGAGTAAACAAATTTTCCTAATCTTTCTGTTCAAGCGCCATCTAC,1.3
4,GATGATTGTTCTCCCAGCTGATGAATTTCTAACGTCGAGTAAACAAATTTTCCTAATCTTTCTGTTCAAGCGCCATCTAC,0.285
5,GATGATTGTTCTCCCAGCTGATGAATTGTGCTAGTCGAGTAAACAAATTTTCCTAATCTTTCTGTTCAAGCGCCATCTAC,2.26
6,GATGATTGTTCTCCCAGCTGATGAATTATCAGAATCGAGTAAACAAATTTTCCTAATCTTTCTGTTCAAGCGCCATCTAC,0.21
7,GATGATTGTTCTCCCAGCTGATGAATTCTCTCCCTCGAGTAAACAAATTTTCCTAATCTTTCTGTTCAAGCGCCATCTAC,0.2
8,GATGATTGTTCTCCCAGCTGATGAATTATGCCATTCGAGTAAACAAATTTTCCTAATCTTTCTGTTCAAGCGCCATCTAC,5.9
9,GATGATTGTTCTCCCAGCTGATGAATTGAGAAGATCGAGTAAACAAATTTTCCTAATCTTTCTGTTCAAGCGCCATCTAC,0.167
10,GATGATTGTTCTCCCAGCTGATGAATTCGACTGGTCGAGTAAACAAATTTTCCTAATCTTTCTGTTCAAGCGCCATCTAC,0.344
11,GATGATTGTTCTCCCAGCTGATGAATTAACATGGTCGAGTAAACAAATTTTCCTAATCTTTCTGTTCAAGCGCCATCTAC,0.36
12,GATGATTGTTCTCCCAGCTGATGAATTTCACCATTCGAGTAAACAAATTTTCCTAATCTTTCTGTTCAAGCGCCATCTAC,0.441
13,GATGATTGTTCTCCCAGCTGATGAATTTTCGGTTTCGAGTAAACAAATTTTCCTAATCTTTCTGTTCAAGCGCCATCTAC,0.4
14,GATGATTGTTCTCCCAGCTGATGAATTCCATGACTCGAGTAAACAAATTTTCCTAATCTTTCTGTTCAAGCGCCATCTAC,0.348
15,GATGATTGTTCTCCCAGCTGATGAATTGGAGGGTTCGAGTAAACAAATTTTCCTAATCTTTCTGTTCAAGCGCCATCTAC,0.358
16,GATGATTGTTCTCCCAGCTGATGAATTAAGTCTCTCGAGTAAACAAATTTTCCTAATCTTTCTGTTCAAGCGCCATCTAC,0.779
17,GATGATTGTTCTCCCAGCTGATGAATTGTGTGCCTCGAGTAAACAAATTTTCCTAATCTTTCTGTTCAAGCGCCATCTAC,2.26
18,GATGATTGTTCTCCCAGCTGATGAATTCAGAGCTTCGAGTAAACAAATTTTCCTAATCTTTCTGTTCAAGCGCCATCTAC,0.247
19,GATGATTGTTCTCCCAGCTGATGAATTTGGACACTCGAGTAAACAAATTTTCCTAATCTTTCTGTTCAAGCGCCATCTAC,1.45
20,GATGATTGTTCTCCCAGCTGATGAATTCCAACCCTCGAGTAAACAAATTTTCCTAATCTTTCTGTTCAAGCGCCATCTAC,0.236
21,GATGATTGTTCTCCCAGCTGATGAATTTGACCTGTCGAGTAAACAAATTTTCCTAATCTTTCTGTTCAAGCGCCATCTAC,0.532
